From PubChem BioAssay (NCI)
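Briefly, cells in 96-well plates were exposed to five compound concentrations for 48 h, and endpoints were estimated by linear interpolation. Abbreviation: GI50, concentration required for 50% inhibition of growth. TGI: concentration producing complete growth inhibition.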

Each compound was assayed on NCI-H322M lung (assay: growth of human tumour cells (NCI), 48 h).
In the case of `CCCC/C=C/C=C/C=C/CCCCCCCC(=O)OCC(COC(=O)CCCCCCC/C=C/C1C=CC(CCCC)C(C(=O)O)C1C(=O)O)OC(=O)CCCCCCC/C=C/C=C/C=C/CCCC` (stereo not given) (tested in a mixture with another compound), the TGI is reported as 55.4 µM.
Work on `CCOC(=O)/C(=C/c1ccc(OC)cc1)N(CC)CC` yielded a TGI greater than 100 µM.
With `CC1(C)[C@@H](Cn2cc(I)c(=O)[nH]c2=O)CC[C@@]1(C)CO` the TGI was greater than 100 µM.
Compound `C=C1C[C@H](O)[C@H](Br)C(C)(C)[C@@]12CCC(C)=C(Cl)C2` has a GI50 of 0.508 µM and a TGI of 13 µM.
Compound `COCOC1/C=C/CCCCC(=O)C(C)C#CC1` (stereo not given) has a TGI of 24.7 µM.
With `N=c1oc2ccccc2cc1C(=O)NC12CC3CC(CC(C3)C1)C2` the TGI was 76.3 µM.
`O=C1/C(=C\c2ccc(Cl)cc2Cl)Sc2scc(-c3ccc(O)c(O)c3)[n+]21` was tested, and the TGI was 71.1 µM.
In the case of `CC1=NN(c2nc(N)nc(COc3ccc(N)cc3)n2)C(C)(C)C1`, the TGI is reported as greater than 100 µM.
Compound `COc1cc(/C=C2\CN(S(=O)(=O)c3ccc(C)cc3)C/C(=C\c3cc(CN4CCCC4)c(O)c(OC)c3)C2=O)cc(CN2CCCC2)c1O` has a GI50 of 1.56 µM and a TGI of 3.22 µM.
`N#CCCC[Si]12OCCN(CCO1)CCO2` gave a TGI greater than 100 µM.
Work on `COc1ccc(Cn2c(Br)c3c(c2Br)-c2nc(N)sc2CC3)cc1` yielded a GI50 of 8.2 µM and a TGI of 35.3 µM.
Work on `c1ccc(Nc2ncc(-c3ccccc3)o2)cc1` yielded a GI50 greater than 19.3 µM and a TGI greater than 25 µM.
With `Cc1ccc(S(=O)(=O)N2CC2CCCCC=O)cc1` (stereo not given) the TGI was greater than 100 µM.
Work on `COC(=O)CC(C)(NS(=O)c1ccc(C)cc1)c1ccccc1` (stereo not given) yielded a TGI greater than 100 µM.
`c1ccc(-c2n(Cc3ccc4ccccc4n3)cc[n+]2Cc2ccc3ccccc3c2)cc1` gave a GI50 of 2.61 µM and a TGI of 9.33 µM.
`CN(C)C(=S)/N=c1\ssc(=S)n1C1CCCCC1` was tested, and the TGI was greater than 100 µM.
`CC(=O)N[C@@H](Cc1ccc(OP(=O)(O)O)cc1)C(=O)N[C@H]1CCC(=O)N2CCC[C@@H](C(=O)Nc3cccc4ccccc34)N2C1=O` was tested, and the GI50 was greater than 25 µM and the TGI was greater than 25 µM.
With `Nc1nc2[nH]cc(CCc3ccc(C(=O)N[C@@H](CCC(=O)O)C(=O)O)cc3)c2c(=O)[nH]1` the TGI was greater than 100 µM.
`COc1cc(-c2nc3sccn3c2-c2ccnc(NCCNS(=O)(=O)c3ccc(F)cc3)n2)ccc1F` gave a GI50 of 4.13 µM and a TGI greater than 100 µM.
`Fc1cc(-c2nnc3n2N=C(c2ccc(Cl)cc2)CS3)c(Cl)cc1Cl` gave a GI50 of 17.5 µM and a TGI of 33.4 µM.
Work on `CCOC(=O)c1nnn(CCCCO)c1C(=O)OCC` yielded a TGI greater than 100 µM.
`O=c1[nH]c(-c2ccccc2)nc2cc(Cl)ccc12` showed a TGI greater than 100 µM.
`CCOC(=O)c1ccc(-c2cc(C)no2)[nH]1` was tested, and the TGI was greater than 100 µM.
`O=[N+]([O-])c1ccc2nc(Nc3ccccc3)c(Nc3ccccc3)nc2c1` gave a TGI of 13.6 µM.
`CCOC(=O)C1=C(C)N(NC(=O)Nc2ccccc2)C2(N)N(NC(=O)Nc3ccccc3)C(C)=C(C(=O)OCC)C12C(=O)OCC` (stereo not given) was tested, and the TGI was greater than 100 µM.
`C[C@]12[C@@H]3CC[C@H]1[C@@H](O)C(=O)N2CC3` was tested, and the TGI was greater than 100 µM.
For `CCOC(=O)n1cc(C2=C(c3ccc(OC)c(OC)c3)COC2=O)c2ccccc21`, the GI50 was 0.843 µM and the TGI was greater than 100 µM.
Compound `COc1cc(-c2nn(-c3cccc(NC(=O)c4ccccc4)c3)cc2-c2ccncc2)ccc1Cl` has a GI50 of 4.45 µM and a TGI greater than 100 µM.
`COc1cc(-c2cccs2)sc1-c1cccs1` showed a TGI greater than 100 µM.
For `CNC(=O)NCCCC(NC(C)=O)C(=O)NCc1ccccc1` (stereo not given), the TGI was greater than 100 µM.
Compound `CN1CCN(C(=O)COc2ccc(C34CC5CC(CC(C5)C3)C4)cc2)CC1` has a GI50 of 17.3 µM and a TGI of 43.5 µM.
`COc1cc2c(cc1OC)C(Cl)C(c1ccc(F)cc1)=C2Cl` (stereo not given) was tested, and the TGI was 33.5 µM.
In the case of `C=C1c2nc3ccccc3n2C=C(c2ccc(OC)cc2)N1c1ccc(OC)cc1`, the TGI is reported as greater than 100 µM.
`COc1ccc(S(=O)(=O)n2c3c(c4ccccc42)[C@@H]2[C@@H](CCCN2C(=O)CS(=O)c2ccc(C)cc2)[C@H](Cl)C3)cc1` (stereo not given in full) gave a TGI greater than 100 µM.
`COC1=CC(=O)C(C2(OC(C)C)OC(=O)C(Cl)=C2Cl)=CC1=O` (stereo not given) gave a TGI greater than 100 µM.
`C/C=C/[C@@H]1O[C@@H]2COC(=O)C2=C[C@@H]1O` showed a GI50 of 29.9 µM and a TGI greater than 74.1 µM.
Compound `O=C1c2ccccc2-n2nnnc2C2CSCN12` (stereo not given) has a TGI greater than 100 µM.
In the case of `COc1cc2c(cc1O)[C@H](C)C(c1ccc(OC)c(OC)c1)O2` (stereo not given in full), the TGI is reported as greater than 100 µM.
`O=C(NC1CCCCC1)NS(=O)(=O)c1ccc(N2N=C3c4ccccc4CC3C2c2ccc(Cl)cc2)cc1` (stereo not given) gave a GI50 of 4.26 µM and a TGI of 20.6 µM.
For `CC(=C(c1ccc(OCCN2CCCCC2)cc1)c1ccc(OCCN2CCCCC2)cc1)c1ccc(Cl)cc1`, the GI50 was 0.405 µM and the TGI was 0.745 µM.
`O=C1SC(SCc2ccccc2)=NC12CC2c1ccccc1` (stereo not given) showed a TGI of 62 µM.
`O=C(NC1C=CCC2C(=O)N(c3ccccc3)C(=O)C12)OCc1ccccc1` (stereo not given) showed a TGI greater than 100 µM.
`Cc1ccc(NC2=C3CCCCC3OC2=O)cc1` (stereo not given) gave a GI50 greater than 100 µM and a TGI greater than 100 µM.
`Cc1cc2c(cc1C)[n+](=O)c(C(=O)c1ccccc1)c(C(F)F)n2[O-]` showed a GI50 of 16.6 µM and a TGI of 66 µM.
Work on `CCCCCCc1cc2cc(-c3cn4ccsc4n3)c(=O)oc2cc1O` yielded a TGI greater than 100 µM.
In the case of `CO[C@](C(=O)OC[C@H]1[C@@H](COC(C)=O)[C@@H]2O[C@H]1c1cc3c(cc12)OCO3)(c1ccccc1)C(F)(F)F`, the TGI is reported as greater than 100 µM.
Work on `Cc1ccc(-[n+]2cc([O-])on2)cc1` yielded a TGI greater than 100 µM.
Compound `CN(C)CC1CCCC/C1=N/O` (stereo not given) has a TGI greater than 100 µM.
With `O=c1c(F)cn(Cc2c(Cl)cccc2Cl)c(=O)n1Cc1c(Cl)cccc1Cl` the TGI was greater than 31.6 µM.
